Paper PMC6054203
These are yes or no findings as the source states them, for the method shown. Sequences can lack the tags named with a protein.

By UniProt entry, the sequences of proteins in these tests, tags left out.
UniProt Q9FJ54: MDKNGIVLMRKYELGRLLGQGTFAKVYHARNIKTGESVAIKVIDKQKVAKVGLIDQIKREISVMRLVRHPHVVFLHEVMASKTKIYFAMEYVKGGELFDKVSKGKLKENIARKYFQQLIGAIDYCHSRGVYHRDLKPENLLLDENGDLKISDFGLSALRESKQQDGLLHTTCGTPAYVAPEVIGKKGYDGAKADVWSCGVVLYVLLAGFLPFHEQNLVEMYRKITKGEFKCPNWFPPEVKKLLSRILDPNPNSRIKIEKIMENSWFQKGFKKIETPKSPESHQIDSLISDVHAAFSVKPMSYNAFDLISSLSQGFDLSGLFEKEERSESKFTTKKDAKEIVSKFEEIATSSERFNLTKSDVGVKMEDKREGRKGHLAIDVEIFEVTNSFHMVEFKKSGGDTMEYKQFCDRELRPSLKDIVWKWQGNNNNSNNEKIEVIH

Key:
Test in all cases: two-hybrid; yeast strain AH109 co-transformed with AD (pGAD.GH) and BD (pGBT9.BS) fusions; growth on SC-LWH and on SC-LWH with 0.5 and 3.0 mM 3-AT
[1] = target: CIPK20, two-hybrid fusion (Arabidopsis) (UniProt Q9FJ54)
[2] = target: T1, CIPK5, two-hybrid fusion (Arabidopsis) (UniProt Q9LEU7)
T1 sequence: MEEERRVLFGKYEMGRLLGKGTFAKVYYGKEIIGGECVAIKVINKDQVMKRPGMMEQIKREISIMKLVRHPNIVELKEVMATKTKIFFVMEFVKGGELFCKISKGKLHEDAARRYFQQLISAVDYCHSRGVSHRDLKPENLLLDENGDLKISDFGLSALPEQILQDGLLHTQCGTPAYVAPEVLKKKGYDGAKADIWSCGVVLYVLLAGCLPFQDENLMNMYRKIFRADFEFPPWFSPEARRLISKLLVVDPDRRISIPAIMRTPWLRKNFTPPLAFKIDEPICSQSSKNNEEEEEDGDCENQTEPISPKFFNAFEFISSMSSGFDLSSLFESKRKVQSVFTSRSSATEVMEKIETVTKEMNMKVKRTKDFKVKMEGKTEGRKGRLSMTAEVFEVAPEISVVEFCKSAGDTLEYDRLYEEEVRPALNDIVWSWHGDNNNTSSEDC

[3] = target: T2, CIPK2, two-hybrid fusion (Arabidopsis) (UniProt Q9LYQ8)
T2 sequence: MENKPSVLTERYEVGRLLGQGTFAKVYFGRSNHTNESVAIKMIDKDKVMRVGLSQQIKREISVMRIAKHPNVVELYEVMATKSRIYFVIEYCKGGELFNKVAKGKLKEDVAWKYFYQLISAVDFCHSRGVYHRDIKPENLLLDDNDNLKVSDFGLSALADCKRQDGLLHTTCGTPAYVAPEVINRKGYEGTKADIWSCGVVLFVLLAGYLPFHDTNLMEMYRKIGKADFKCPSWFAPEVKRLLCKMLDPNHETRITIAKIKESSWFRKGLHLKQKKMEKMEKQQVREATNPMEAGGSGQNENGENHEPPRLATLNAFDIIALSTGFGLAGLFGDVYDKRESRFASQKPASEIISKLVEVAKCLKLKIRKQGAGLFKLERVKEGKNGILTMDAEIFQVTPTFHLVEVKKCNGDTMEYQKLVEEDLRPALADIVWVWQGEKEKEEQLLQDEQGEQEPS

[4] = target: T3, CIPK23, two-hybrid fusion (Arabidopsis) (UniProt Q93VD3)
T3 sequence: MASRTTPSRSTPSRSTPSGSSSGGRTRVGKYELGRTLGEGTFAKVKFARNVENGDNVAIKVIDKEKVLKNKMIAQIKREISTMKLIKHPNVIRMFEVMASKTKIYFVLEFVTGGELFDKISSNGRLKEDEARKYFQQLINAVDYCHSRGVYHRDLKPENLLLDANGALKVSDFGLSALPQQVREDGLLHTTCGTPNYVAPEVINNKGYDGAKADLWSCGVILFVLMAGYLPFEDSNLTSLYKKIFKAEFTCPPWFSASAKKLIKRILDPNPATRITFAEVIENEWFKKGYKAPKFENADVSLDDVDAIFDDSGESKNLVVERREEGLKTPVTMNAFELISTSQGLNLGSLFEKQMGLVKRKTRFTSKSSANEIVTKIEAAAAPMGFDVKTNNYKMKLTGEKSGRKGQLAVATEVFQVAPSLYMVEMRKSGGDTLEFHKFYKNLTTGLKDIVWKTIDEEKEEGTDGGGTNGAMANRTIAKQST

[5] = target: T4, CIPK13, two-hybrid fusion (Arabidopsis) (UniProt O22971)
T4 sequence: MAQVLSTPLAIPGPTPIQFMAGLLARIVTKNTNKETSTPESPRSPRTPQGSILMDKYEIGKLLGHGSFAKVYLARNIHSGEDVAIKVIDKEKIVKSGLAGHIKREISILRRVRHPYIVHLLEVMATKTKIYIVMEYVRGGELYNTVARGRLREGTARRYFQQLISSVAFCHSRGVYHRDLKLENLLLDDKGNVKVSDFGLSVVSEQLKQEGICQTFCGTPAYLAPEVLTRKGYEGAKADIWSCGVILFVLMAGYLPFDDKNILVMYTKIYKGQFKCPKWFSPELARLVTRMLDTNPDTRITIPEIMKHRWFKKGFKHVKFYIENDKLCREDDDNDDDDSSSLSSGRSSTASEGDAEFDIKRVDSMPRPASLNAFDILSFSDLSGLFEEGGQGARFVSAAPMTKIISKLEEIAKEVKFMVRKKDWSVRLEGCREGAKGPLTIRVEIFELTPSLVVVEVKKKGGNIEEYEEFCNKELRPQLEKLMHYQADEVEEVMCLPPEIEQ

[6] = target: T5, CIPK26, two-hybrid fusion (Arabidopsis) (UniProt Q84VQ3)
T5 sequence: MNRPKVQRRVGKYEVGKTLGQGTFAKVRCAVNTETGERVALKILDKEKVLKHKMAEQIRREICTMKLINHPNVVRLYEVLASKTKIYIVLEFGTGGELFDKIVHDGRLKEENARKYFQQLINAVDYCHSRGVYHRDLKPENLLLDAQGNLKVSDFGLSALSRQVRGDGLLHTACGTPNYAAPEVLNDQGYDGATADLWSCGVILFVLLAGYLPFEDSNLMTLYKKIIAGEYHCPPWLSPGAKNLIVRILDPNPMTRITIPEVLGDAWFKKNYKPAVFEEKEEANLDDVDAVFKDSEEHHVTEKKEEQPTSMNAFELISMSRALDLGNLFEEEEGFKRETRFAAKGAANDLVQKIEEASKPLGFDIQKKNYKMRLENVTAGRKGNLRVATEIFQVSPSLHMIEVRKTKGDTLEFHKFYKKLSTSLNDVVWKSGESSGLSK

Measured: binding

B1: AP2C1 (protein phosphatase 2C), two-hybrid fusion (enzyme, UniProt O80871 1-396)
chain: MSCSVAVCNSPVFSPSSSLFCNKSSILSSPQESLSLTLSHRKPQTSSPSSPSTTVSSPKSPFRLRFQKPPSGFAPGPLSFGSESVSASSPPGGVLKRKRPTRLDIPIGVAGFVAPISSSAAVAATPREECREVEREGDGYSVYCKRGRREAMEDRFSAITNLHGDRKQAIFGVYDGHGGVKAAEFAAKNLDKNIVEEVVGKRDESEIAEAVKHGYLATDASFLKEEDVKGGSCCVTALVNEGNLVVSNAGDCRAVMSVGGVAKALSSDHRPSRDDERKRIETTGGYVDTFHGVWRIQGSLAVSRGIGDAQLKKWVIAEPETKISRIEHDHEFLILASDGLWDKVSNQEAVDIARPLCLGTEKPLLLAACKKLVDLSASRGSSDDISVMLIPLRQFI
no binding: [1] | [2] | [3] | [4] | [5] | [6]
